Several values for one entry are separate records, joined by “and”; a condition that tells them apart may be missing. Equal entries are not always repeated. In all, about 16,000 compounds went through this assay and about 40 (0.2%) were called active. Inconclusive results (about 1%) are left out. Calls follow the shape of the dose curve; as a rule, active = well fitted activation curve with a large enough effect; inconclusive = small, poorly fitted or top-dose-only effect, or another doubt; inactive = no such curve, though single readings can be large or run the other way. This is one part of the list.
What follows are compounds tested against Rap guanine nucleotide exchange factor 4 (Homo sapiens) (UniProt Q8WZA2) (assay: Validation qHTS for agonist of cAMP-regulated guanine nucleotide exchange factor 4 (EPAC2)). Settings: EPAC2 Rap1B BODIPY-GDP exchange, fluorescence; activation: hits give high values.
Chain of UniProt Q8WZA2 (Q8WZA2 whole entry, looked up): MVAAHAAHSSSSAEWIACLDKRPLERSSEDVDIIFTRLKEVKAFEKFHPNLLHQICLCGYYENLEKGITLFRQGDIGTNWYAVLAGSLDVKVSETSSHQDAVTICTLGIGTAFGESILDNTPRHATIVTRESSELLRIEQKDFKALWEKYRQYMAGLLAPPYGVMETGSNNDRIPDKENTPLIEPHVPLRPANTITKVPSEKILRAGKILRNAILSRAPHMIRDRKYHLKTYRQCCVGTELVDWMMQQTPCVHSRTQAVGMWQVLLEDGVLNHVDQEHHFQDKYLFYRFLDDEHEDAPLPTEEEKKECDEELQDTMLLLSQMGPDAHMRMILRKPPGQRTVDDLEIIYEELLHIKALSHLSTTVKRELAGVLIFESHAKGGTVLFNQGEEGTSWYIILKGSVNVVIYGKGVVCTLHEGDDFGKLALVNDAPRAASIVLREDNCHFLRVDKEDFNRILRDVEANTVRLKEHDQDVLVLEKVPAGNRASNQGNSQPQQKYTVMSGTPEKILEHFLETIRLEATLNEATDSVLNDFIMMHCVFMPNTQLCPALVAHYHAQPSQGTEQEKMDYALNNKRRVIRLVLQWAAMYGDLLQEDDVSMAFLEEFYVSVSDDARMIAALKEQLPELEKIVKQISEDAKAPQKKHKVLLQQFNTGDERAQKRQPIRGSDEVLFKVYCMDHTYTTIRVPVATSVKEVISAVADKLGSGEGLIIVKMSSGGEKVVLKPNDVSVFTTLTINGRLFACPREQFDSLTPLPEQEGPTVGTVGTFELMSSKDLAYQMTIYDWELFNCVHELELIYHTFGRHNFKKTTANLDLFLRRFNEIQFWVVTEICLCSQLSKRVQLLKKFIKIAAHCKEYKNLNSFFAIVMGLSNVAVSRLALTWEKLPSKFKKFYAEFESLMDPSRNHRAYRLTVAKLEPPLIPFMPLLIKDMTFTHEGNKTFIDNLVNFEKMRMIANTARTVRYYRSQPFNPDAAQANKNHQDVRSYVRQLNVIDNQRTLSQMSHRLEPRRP
Outline: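 Signal normalized against 6.5 mM cAMP as agonist control. Mix of EPAC2 (100 nM), RAP1B-BODIPY-GDP (250 nM) and GDP (50 uM) was read kinetically at 480/540 nm, every 5 min over 30 min, after 5 min room-temperature incubation with compound.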
% is scaled to controls: 0 for no effect and ±100 for the full control effect.
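Also: exchange makes BODIPY-GDP fluorescence drop when released from Rap1B; series mostly up to about 150 µM.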

activation, inactive:
COc1ccc2oc(-c3ccc(O)cc3)cc(=O)c2c1 -22%
CCOC(=O)N1CCN(Cc2ccc3c(c2)CN(C(=O)c2cccc(-n4cccn4)c2)CCO3)CC1 -8.94%
CC(C)[C@@H]1NC(=O)[C@H](Cc2ccccc2)NC(=O)[C@@H](CC(=O)O)NC(=O)CNC(=O)[C@H](CCCNC(=N)N)NC1=O -15.4%
COc1ccccc1-c1nccc(NCc2cccc(C)c2)n1 -13.6%
CN(C)C(=O)c1ccc(-c2cncnc2Nc2ccc(F)cc2)cc1 -12.3%
CN1CCN(C2=Nc3ccccc3Sc3ccc(Cl)cc32)CC1 -19.7% and 8.63%
COc1ccccc1CNc1ccnc(-c2cccnc2)n1 -0.808%
O=C(O)c1cc(=O)c2c3nc4ccccc4oc-3cc(=O)c2[nH]1 7.38%
CC1(C)[C@@H](O[C@H]2O[C@H](C(=O)O)[C@@H](O)[C@H](O)[C@H]2O[C@@H]2O[C@H](C(=O)O)[C@@H](O)[C@H](O)[C@H]2O)CC[C@]2(C)[C@H]3C(=O)C=C4[C@@H]5C[C@@](C)(C(=O)O)CC[C@]5(C)CC[C@@]4(C)[C@]3(C)CC[C@@H]12 3.87%
CCN1CCCC1CNC(=O)c1cnn(-c2ncc3c(n2)-c2ccc(OC)cc2CC3)c1C1CC1 (stereo unspecified) -9.04%
CN(Cc1ccco1)c1ncnc2ccc(-c3cccnc3)cc12 -20.9%
CC(=O)c1ccccc1-c1ccc2c(c1)CC(CNC(=O)Cc1c[nH]c3ccccc13)O2 (stereo unspecified) 6.42%
Nc1ncnc2nc(-c3ccc(N4CCOCC4)nc3)cc(-c3cccc(Br)c3)c12 -78.7%
C[C@]12C=CC(=O)C=C1CC[C@@H]1[C@@H]2C(=O)C[C@@]2(C)[C@H]1CC[C@]2(O)C(=O)CO 3.22%
O=C1CCN(Cc2ccc(Br)cc2)CCN1[C@H](CO)c1ccccc1 -21.6%
C=CCn1c(=O)n([C@@H]2O[C@H](CO)[C@@H](O)[C@H]2O)c2nc(N)[nH]c(=O)c21 -24.1%
CN(C)C(=O)c1ccc(-c2nccc(NCc3ccccc3)n2)cc1 -0.0553%
C[C@]12C=CC(=O)C=C1CC[C@@H]1C2=CC[C@]2(C)[C@@H](C(=O)CN3CCN(c4cc(N5CCCC5)nc(N5CCCC5)n4)CC3)CC[C@@H]12 -5.05%
CCOC(=O)CCC(=O)O[C@H]1[C@H](O[C@@H]2[C@@H](C)[C@H](O[C@H]3C[C@@](C)(OC)[C@@H](O)[C@H](C)O3)[C@@H](C)C(=O)O[C@H](CC)[C@@](C)(O)[C@H](O)[C@@H](C)C(=O)[C@H](C)C[C@@]2(C)O)O[C@H](C)C[C@@H]1N(C)C -12.4%
CCCCCCCCCCCCC/C=C\[C@@H](O)[C@@H](N)CO -12.9%
Nc1ccc(C(=O)Nc2ccccc2N)cc1 0.0704%
C[C@](N)(C(=O)O)c1ccc(-c2nn[nH]n2)cc1 -5.28%
CCCCCCCCCCCCCCCCCCN(CCCCCCCCCCCCCCCCCC)c1ccc(/C=C/c2ccc(C=O)cc2)cc1 -8.08%
Cc1ccccc1-n1cc(CNC(=O)CN2Cc3ccccc3OC(C)C2)cn1 (stereo unspecified) -1.03%
COc1ccc2[nH]cc(CCNc3ncncc3-c3ccoc3)c2c1 0.9%
COc1cccc(C2(CC(=O)N3CCC(c4nc5ccccc5o4)CC3)CC(=O)N(C)C2=O)c1 (stereo unspecified) -12.1%
CCCS(=O)(=O)NCc1c(C)ncc2c1CCN(C(=O)c1ccc3[nH]c4c(c3c1)CCCC4)C2 -6.12%
C[n+]1cccc(C(=O)[O-])c1 -9.71%
CCCCCCCCCCCCCCC[C@@H](O)[C@@H](N)CO -13.3% and -10.2%
COc1cc(C)c(/C=C/C(C)=C/C=C/C(C)=C/C(=O)O)c(C)c1C -4.79% and -4.32%
CCOC(=O)C[C@H]1c2ccc(C(F)(F)F)cc2S(=O)(=O)N1C(C)(C)C -31.8%
CCCCCCCCCCCCCCCCCC(=O)OCC(O)CO (stereo unspecified) 6.63%
CCNc1ncc2nc(-c3cn(C)c4ccccc34)c(=O)n(-c3ccccc3)c2n1 14.5%
COc1cc(CN2CCCC(n3cc(C(=O)N4CCCCC4)nn3)C2)cc(OC)c1OC (stereo unspecified) -2.07%
c1ccc2c(CCC3CCNCC3)c[nH]c2c1 -7.1%
C=CC(C1=CC(=O)C(OC)=C(OC)C1=O)c1ccccc1 (stereo unspecified) -12.6%
COc1ccc(C(=O)C[n+]2cccc3cccc(O)c32)cc1 -13.2%
Cc1ccccc1C1(CC(=O)N2CC3(C)CC2CC(C)(C)C3)CC(=O)N(Cc2cccnc2)C1=O (stereo unspecified) -11.8%
OC[C@H]1O[C@@H](OC[C@H]2O[C@@H](O)[C@H](O)[C@@H](O)[C@@H]2O)[C@H](O)[C@@H](O)[C@@H]1O -1.95%
Cc1cccc(CNc2ccnc(-c3ccc(N(C)C)cc3)n2)c1 -11.7%
CCOC(=O)C[C@H]1c2ccccc2S(=O)(=O)N1c1ccccc1 -24.7%
CN(C)c1ncc2nc(-c3cccc(C#N)c3)c(=O)n(CCC#N)c2n1 -0.938%
O=C(O)[C@H]1C(=CCO)O[C@H]2CC(=O)N12 -12.9%
C[C@]12CC3CC(N)(C1)C[C@@](C)(C3)C2 3.85%
C[C@@H]1CN(Cc2ccc3c(c2)CN(Cc2ccc(Oc4ncccn4)cc2)CCO3)C[C@H](C)O1 -7.71%
COC1=CC(=O)CC(C)C12Oc1c(Cl)c(OC)cc(OC)c1C2=O (stereo unspecified) 2.44%
COc1ccc(-c2noc(CC(=O)O)c2-c2ccc(OC)cc2)cc1 -10.4%
COc1cc2c(cc1OC)C(C(=O)c1ccc(OC)c(OC)c1O)=NCC2 -11.6%
CN(C)CCC=C1c2ccccc2C=Cc2ccccc21 -11.7% and -9.8% and -5.9%
NC(N)=N/N=C/c1c(Cl)cccc1Cl -12.2% and -6.28%
Clc1ccc[n+](CCCCC[n+]2cccc(Cl)c2)c1 -27.9%
NS(=O)(=O)c1cc2c(cc1Cl)NCNS2(=O)=O -10.7% and -15.7%
O=C1C(=O)N(Cc2ccc(Cl)c(Cl)c2)c2ccccc21 14.4%
CC1=C(/C=C/C(C)=C/C=C/C(C)=C/C=C/C=C(C)/C=C/C=C(C)/C=C/C(=O)[C@]2(C)CC(O)CC2(C)C)C(C)(C)CC(O)C1 (stereo partly specified) -2.2%
CS(=O)(=O)N1CCC2(CCCN(C(=O)Nc3cccc(C#N)c3)C2)CC1 -28%
COc1cc(/C=C/C(=O)O)ccc1O -2.06%
Cc1cnc(SCc2ccccn2)nc1C1CCCN(C(=O)c2ccc3c(c2)OCCO3)C1 (stereo unspecified) 5.18%
C[N+]1(C)CCC(=C(c2ccccc2)c2ccccc2)CC1 -2.94% and -10.3%
CC(C)CC(NC(=O)OCC1c2ccccc2-c2ccccc21)C(=O)O (stereo unspecified) -3.94%
COc1cccc(Nc2ncc3nc(-c4ccc(F)cc4)c(=O)n(C[C@H]4CCCO4)c3n2)c1 -12.1%
Nc1ccc(C(=O)Oc2ccccc2)c(O)c1 -6.09%
O=c1c(-c2ccc(F)cc2)nc2cnc(Oc3cccc(Cl)c3)nc2n1C1CC1 0.999%
CCNc1ncc2nc(-c3ccc(Cl)cc3)c(=O)n(C)c2n1 -9.79%
Cc1ccccc1C1(CC(=O)N2CCCCC2C)CC(=O)N(Cc2cccnc2)C1=O (stereo unspecified) -8.13%
COc1cc(CN2CCCC(n3cc(C(=O)N4CCCC4)nn3)C2)cc(OC)c1 (stereo unspecified) -11.8%
O=C(Oc1ccccc1)N1CCC2(CCCN(c3ccncc3)C2)CC1 -10%
Cc1ccc(-c2ccnc(-n3ncc(C(=O)N(C)Cc4cccc5ncccc45)c3C3CC3)n2)o1 2.22%
Cc1noc(C)c1CCC(=O)N1CCOc2ccc(CN3CCN(c4ccccn4)CC3)cc2C1 2.37%
COC(=O)c1cc(CNC(=O)c2cccc(N(C)C)c2)cc(NC(=O)c2ccccc2Cl)c1 -22%
O=c1[nH]c(=O)n([C@H]2C[C@H](O)[C@@H](CO)O2)cc1F 4.7% and 5.76%
COc1ccccc1CN1CC[C@@]2(CCCN(C(=O)c3cccc(F)c3)C2)C1 -1.9%
Fc1ccc(Nc2ccnc(-c3ccoc3)n2)cc1 -20.5%
CCCCCCOC(=O)c1cccnc1 -12.8%
COc1ccc(-c2cn(Cc3ccc(C(=O)c4ccccc4)cc3)nn2)cc1 -10.2%
OC(CN1CCCCC1)c1cc(-c2ccccc2)on1 (stereo unspecified) 8.32%
NC(=O)c1ncn([C@@H]2O[C@H](CO)[C@@H](O)[C@H]2O)c1N -9.43%
C=C1CCC2C(CC2(C)C)C(=C)CC/C1=N/O (stereo unspecified) -9.33%
CNc1nc(-c2ccoc2)nc2ccccc12 -5.87%
COc1cc2c(cc1OC)[C@@H](c1ccccc1)CN(C)CC2 -4.15%
Cc1ccccc1-c1nc(N2CCNCC2)c2ccccc2n1 1.67%
Cc1cc(C)cc(CN2CCc3nnc(C(NS(C)(=O)=O)C(C)C)n3CC2)c1 (stereo unspecified) -22.2%
